One experiment addresses GST-Akt aa 1-107 (UniProt P31749). The experiment can be described thus: pull-down; HEK 293T co-transfected with a GST-tagged protein and FLAG-mSin1 or a fragment; GSH pull down from lysate, anti-FLAG blot.
The next experiment concerns the target GST-Rap1b G12V (UniProt P61224). The description is as above.
Another experiment has as its target GST-Akt aa 149-480 (UniProt P31749). Described as above.
A further experiment has as its target GST-HaRas G12V (UniProt P01112). The experiment is described as above.
The target of experiment [1] is endogenous mSin1 (human (endogenous in HEK 293T)) (UniProt Q9BPZ7). The experiment can be described thus: co-IP; endogenous proteins; HEK 293T lysed in buffer containing 0.25% CHAPS; IP and reciprocal IP with Raptor, Rictor or mSin1 antibodies.
Experiment [2] concerns the target FLAG-mSin1 wild-type (mouse) (UniProt Q8BKH7). Put plainly: co-IP; HEK 293T co-transfected with a FLAG-tagged and an HA- or GST-tagged protein; FLAG antibody IP from lysate (0.25% CHAPS lysis buffer, washes incl. 0.5 M NaCl, 4°C), Western blot with anti-HA or anti-GST.
In experiment [3] the target is FLAG-mSin1 Δaa 240-313 (mouse) (UniProt Q8BKH7). Described as above.
Experiment [4] deals with FLAG-mSin1 aa 220-313 (mouse) (UniProt Q8BKH7). Described as above.
For experiment [5], the target named is FLAG-mSin1 aa 315-522 (mouse) (UniProt Q8BKH7). The experiment is described as above.
Experiment [6] addresses FLAG-mSin1 aa 1-460 (mouse) (UniProt Q8BKH7). The experiment is described as above.

Chains of the proteins cited; added tags and fusions are not shown. Lines headed by an entry give the natural chain unless they say otherwise; changes in a name come on top. Residues count along the entry.
UniProt P31749: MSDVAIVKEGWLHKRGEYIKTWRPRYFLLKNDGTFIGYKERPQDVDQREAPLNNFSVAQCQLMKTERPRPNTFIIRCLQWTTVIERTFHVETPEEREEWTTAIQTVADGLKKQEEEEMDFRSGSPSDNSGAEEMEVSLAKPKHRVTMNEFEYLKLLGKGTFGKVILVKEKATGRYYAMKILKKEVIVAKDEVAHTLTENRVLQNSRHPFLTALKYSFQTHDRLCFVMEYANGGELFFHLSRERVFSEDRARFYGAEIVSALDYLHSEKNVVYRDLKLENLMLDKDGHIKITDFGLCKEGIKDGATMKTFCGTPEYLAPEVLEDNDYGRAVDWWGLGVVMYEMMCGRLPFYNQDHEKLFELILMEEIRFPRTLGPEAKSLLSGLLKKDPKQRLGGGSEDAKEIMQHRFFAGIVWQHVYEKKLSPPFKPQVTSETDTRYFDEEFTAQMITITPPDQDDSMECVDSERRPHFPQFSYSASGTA
GST-Akt aa 1-107: residues 1-107 of P31749
GST-Akt aa 149-480: residues 149-480 of P31749
UniProt P61224: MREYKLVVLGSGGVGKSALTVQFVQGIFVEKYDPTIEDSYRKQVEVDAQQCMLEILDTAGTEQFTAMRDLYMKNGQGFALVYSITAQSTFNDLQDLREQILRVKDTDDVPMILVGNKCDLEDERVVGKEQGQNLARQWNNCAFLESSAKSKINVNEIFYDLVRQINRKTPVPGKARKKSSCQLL
UniProt Q9BPZ7: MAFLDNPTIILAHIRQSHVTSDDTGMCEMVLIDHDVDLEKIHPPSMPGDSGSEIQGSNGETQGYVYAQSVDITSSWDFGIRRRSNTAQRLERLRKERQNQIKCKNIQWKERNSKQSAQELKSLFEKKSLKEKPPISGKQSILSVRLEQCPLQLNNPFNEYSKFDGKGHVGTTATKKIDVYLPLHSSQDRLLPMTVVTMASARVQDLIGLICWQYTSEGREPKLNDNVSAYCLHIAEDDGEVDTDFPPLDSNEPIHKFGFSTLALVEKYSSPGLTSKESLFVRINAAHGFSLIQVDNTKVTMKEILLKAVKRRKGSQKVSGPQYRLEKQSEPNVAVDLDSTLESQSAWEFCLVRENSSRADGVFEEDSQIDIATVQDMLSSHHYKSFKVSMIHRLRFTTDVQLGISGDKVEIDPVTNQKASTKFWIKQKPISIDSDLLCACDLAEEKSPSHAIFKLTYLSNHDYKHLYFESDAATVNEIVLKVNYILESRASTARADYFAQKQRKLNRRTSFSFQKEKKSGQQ
UniProt Q8N122: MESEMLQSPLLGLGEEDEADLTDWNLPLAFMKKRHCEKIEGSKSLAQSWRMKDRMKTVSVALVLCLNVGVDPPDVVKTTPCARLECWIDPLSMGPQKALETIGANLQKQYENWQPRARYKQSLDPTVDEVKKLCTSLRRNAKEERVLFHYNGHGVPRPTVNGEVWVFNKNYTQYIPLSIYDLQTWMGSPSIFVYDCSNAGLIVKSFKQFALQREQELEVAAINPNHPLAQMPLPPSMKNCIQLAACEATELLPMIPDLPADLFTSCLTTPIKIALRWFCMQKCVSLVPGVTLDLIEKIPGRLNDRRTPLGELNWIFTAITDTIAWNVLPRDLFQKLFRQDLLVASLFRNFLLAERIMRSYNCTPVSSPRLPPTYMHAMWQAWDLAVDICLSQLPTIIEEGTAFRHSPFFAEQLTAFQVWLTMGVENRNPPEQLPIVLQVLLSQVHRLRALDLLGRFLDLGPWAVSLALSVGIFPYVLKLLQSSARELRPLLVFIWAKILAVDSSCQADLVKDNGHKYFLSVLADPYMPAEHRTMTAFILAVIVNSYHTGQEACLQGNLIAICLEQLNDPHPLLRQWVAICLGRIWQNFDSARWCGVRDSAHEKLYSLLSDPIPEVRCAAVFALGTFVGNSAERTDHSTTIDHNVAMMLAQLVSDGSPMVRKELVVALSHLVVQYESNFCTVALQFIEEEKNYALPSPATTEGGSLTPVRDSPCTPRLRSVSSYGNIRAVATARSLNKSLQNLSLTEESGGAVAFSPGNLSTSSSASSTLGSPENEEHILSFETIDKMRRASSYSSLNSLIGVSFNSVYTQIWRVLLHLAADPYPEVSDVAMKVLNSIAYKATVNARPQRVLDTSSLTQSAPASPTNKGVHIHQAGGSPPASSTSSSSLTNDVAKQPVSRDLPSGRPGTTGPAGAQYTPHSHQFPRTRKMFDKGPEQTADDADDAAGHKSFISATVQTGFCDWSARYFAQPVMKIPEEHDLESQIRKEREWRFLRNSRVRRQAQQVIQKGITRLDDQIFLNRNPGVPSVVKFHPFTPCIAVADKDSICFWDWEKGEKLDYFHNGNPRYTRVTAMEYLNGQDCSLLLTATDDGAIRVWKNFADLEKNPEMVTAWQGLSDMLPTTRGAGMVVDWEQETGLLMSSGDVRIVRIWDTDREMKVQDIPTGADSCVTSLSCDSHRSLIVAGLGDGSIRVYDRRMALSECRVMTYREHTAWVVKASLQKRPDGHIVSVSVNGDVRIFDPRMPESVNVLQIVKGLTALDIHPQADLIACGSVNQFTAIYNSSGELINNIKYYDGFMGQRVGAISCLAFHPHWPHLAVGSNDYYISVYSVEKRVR
HA-Rictor aa 1-860 (Q6R327, residues 1-860): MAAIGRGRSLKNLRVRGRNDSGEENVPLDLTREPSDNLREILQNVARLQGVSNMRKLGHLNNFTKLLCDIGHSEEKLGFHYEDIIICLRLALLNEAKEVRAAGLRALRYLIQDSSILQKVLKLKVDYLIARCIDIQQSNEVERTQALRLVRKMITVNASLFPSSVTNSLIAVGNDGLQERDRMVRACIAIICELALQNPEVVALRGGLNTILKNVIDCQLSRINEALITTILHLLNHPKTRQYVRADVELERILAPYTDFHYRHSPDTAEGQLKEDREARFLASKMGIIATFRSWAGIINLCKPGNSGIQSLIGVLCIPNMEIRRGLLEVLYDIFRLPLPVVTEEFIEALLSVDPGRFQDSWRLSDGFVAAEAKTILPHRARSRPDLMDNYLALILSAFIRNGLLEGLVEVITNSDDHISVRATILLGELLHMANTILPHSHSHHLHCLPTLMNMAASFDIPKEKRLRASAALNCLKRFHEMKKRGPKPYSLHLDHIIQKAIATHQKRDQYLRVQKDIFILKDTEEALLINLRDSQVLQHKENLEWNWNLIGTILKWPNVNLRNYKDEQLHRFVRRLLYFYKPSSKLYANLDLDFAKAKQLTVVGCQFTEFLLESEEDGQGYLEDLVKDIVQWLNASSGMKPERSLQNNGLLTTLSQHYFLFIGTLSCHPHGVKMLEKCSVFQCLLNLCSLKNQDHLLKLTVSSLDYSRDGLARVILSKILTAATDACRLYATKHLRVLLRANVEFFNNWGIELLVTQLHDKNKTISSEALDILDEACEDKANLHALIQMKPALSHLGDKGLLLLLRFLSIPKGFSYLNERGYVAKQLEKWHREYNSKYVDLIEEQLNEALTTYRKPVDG
HA-Rictor aa 1181-1708 (Q6R327, residues 1181-1708): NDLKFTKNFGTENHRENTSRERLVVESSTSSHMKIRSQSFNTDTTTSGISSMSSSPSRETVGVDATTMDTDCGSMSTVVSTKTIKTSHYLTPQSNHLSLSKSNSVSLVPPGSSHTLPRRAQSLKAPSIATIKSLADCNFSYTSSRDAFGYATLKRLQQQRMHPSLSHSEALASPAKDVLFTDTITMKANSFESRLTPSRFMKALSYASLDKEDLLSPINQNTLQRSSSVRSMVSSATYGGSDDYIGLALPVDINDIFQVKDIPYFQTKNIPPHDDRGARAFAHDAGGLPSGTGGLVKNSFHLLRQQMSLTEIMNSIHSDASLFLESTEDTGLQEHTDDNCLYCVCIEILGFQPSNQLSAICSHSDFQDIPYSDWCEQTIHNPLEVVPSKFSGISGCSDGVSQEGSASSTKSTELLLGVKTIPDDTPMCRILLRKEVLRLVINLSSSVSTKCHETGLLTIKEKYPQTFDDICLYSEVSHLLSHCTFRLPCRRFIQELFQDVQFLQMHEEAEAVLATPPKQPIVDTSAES

Results are given in words; binding and its absence hold for the method and conditions named. Binding seen in cells or lysates may run through a third protein. Some binding calls cover weakened binding; strength is not graded here.

With “FLAG-mSin1 wild-type (from UniProt Q8BKH7 1-522)”, the binding entry with GST-Akt aa 1-107 is listed as “binds”; in the experiment with GST-Rap1b G12V it was “no binding”; in the experiment with GST-Akt aa 149-480, “no binding”; with GST-HaRas G12V it was “binds”.

In the case of “endogenous Raptor (from UniProt Q8N122 1-1335)”, the binding entry in [1] is recorded as “no binding”.

On to “HA-Rictor aa 1181-1708 (from UniProt Q6R327 1181-1708) (domain or fragment)”, for which the binding result in [2] is given as “binds”.

For GST-Akt WT (from UniProt P31749 1-480), the binding entry is “no binding” in experiment [3]; “binds” in [4]; “binds” in [2]; “no binding” in experiment [5]; “binds” in experiment [6].

Take HA-mSin1 (from UniProt Q8BKH7 1-522): the binding entry in experiment [2] is recorded as “binds”.

As to “FLAG-mSin1 aa 260-460 (from UniProt Q8BKH7 260-460) (domain or fragment)”, the binding result in the experiment with GST-HaRas G12V is “binds”.

With “HA-Rictor aa 1-860 (from UniProt Q6R327 1-860) (domain or fragment)”, in experiment [2], the binding entry was “no binding”.

Source of the values: paper PMC5609931.
